Experimental findings from patent US20220112258A1 (I MAB BIOPHARMA US, published 2022) are described below.

One may read the Kd as the equilibrium constant for the complex coming apart. As usually defined, the koff is the first-order rate constant of dissociation. Broadly, the kon is the rate constant with which the complex forms. One may read the EC50 as the midpoint of the concentration-response curve.

Experiment [1] concerns the target T1, recombinant human his-tagged PD-L1 protein (human, UniProt Q9NZQ7 in part).
T1 construct: also called hPDL1-his; his-tagged human PD-L1; not shown: his tag
Briefly: SPR (Biacore T200), fusion molecule captured on protein A chip, his-tagged human PD-L1 injected. As for the experimental part:
A series of dilutions of human PD-L1 protein were injected over captured antibody at a flow rate of 10 μL/min. […] All the experiments were carried out on a Biacore T200. Data analysis was carried out using Biacore T200 evaluation software.
(In general: Surface plasmon resonance follows binding to a sensor surface in real time, without labels.)

Experiment [2] has as its target T2, PD-L1 expressed on cells (Raji-PD-L1; tumor cell lines RKO, HCC1954, HCC827) (human, UniProt Q9NZQ7).
T2 construct: whole, on cells; also called cell-surface expressed PD-L1; cell surface PD-L1
As to the kind of experiment: flow cytometry on Raji-PD-L1 cells, PE anti-human IgG Fc, MFI. As for the experimental part: After washing by FACS staining buffer, the PE-conjugated anti-human IgG Fc specific antibody was added to each well and incubated on ice for 30 mins. The MFI of PE were evaluated by FACS Celesta.

Experiment [3] concerns the target T1, recombinant human his-tagged PD-L1 …. Briefly: ELISA, his-tagged PDL1 coated, OD450. The text has this:
Briefly, for ELISA-based binding, his-tagged PDL1 was used as coating protein.
(In general: In an ELISA, binding on a coated surface is turned into a signal by an enzyme label.)

Experiment [4] concerns the target T2, PD-L1 expressed on cells (Raji-PD-L1; …). As to the kind of experiment: flow cytometry on HCC1954 breast cancer cells, MFI. A general note: A flow cytometer gives signals particle by particle.
Experiment [5] shares this target. Briefly: flow cytometry on HCC827 lung cancer cells, MFI.
For experiment [6] the target is unchanged. As to the kind of experiment: flow cytometry on RKO colon carcinoma cells, MFI.

B1: L1I7^142V (anti-PD-L1 v4) Format 2 (Fc fusion)
heavy: QVQLLESGGGLVQPGGSLRLSCAASGFTFSSYWMSWVRQAPGKGLEWVANIKQDGSEKYYVDSVKGRFTISRDNAKNSLYLQMNSLRAEDTAVYYCARVALWDDAFDIWGQGTMVTVSSASTKGPSVFPLAPSSKSTSGGTAALGCLVKDYFPEPVTVSWNSGALTSGVHTFPAVLQSSGLYSLSSVVTVPSSSLGTQTYICNVNHKPSNTKVDKKVEPKSCQVQLLESGGGLVQPGGSLRLSCAASGFTFSSYWMSWVRQAPGKGLEWVANIKQDGSEKYYVDSVKGRFTISRDNAKNSLYLQMNSLRAEDTAVYYCARVALWDDAFDIWGQGTMVTVSSASTKGPSVFPLAPSSKSTSGGTAALGCLVKDYFPEPVTVSWNSGALTSGVHTFPAVLQSSGLYSLSSVVTVPSSSLGTQTYICNVNHKPSNTKVDKKV[human IgG1 Fc with changes not listed]
chain: DCDIEGKDGKQYESVLMVSIDQLLDSMKEIGSNCLNNEFNFFKRHICDANKEGMFLFRAARKLRQFLKMNSTGDFDLHLLKVSEGTTILLNCTGQVKGRKPAALGEAQPTKSLEENKSLKEQKKLNDLCFLKRLLQEIKTCVNKILMGTKEH[human IgG1 Fc with changes not listed]
light: DIQMTQSPSTLSASVGDRVIITCRASRGISSWLAWYQQKPGKAPNLLISKASSLESGVPSRFSGSGSGTDFTLTISSLQPEDFATYYCQQSSSIPLTFGGGTKVEIKRTVAAPSVFIFPPSDEQLKSGTASVVCLLNNFYPREAKVQWKVDNALQSGNSQESVTEQDSKDSTYSLSSTLTLSKADYEKHKVYACEVTHQGLSSPVTKSFNRGEC
notes: Format 2 with IL-7 W142V
In the case of B1, in experiment [1], the Kd was determined as 734 pM, the koff is 0.000649 s⁻¹ and the kon turned out to be 885000 M⁻¹ s⁻¹. The molecule further returned an EC50 in experiment [2] of 250 pM. In addition, in experiment [3], the EC50 was determined as 690 pM.

B2: L1I7^142A (anti-PD-L1 v3) Format 2 (Fc fusion)
heavy: EVQLVESGGGLVQPGGSLRLSCAASGFTFSSYDMSWVRQAPGKSLEWVATISDAGGYIYYSDSVKGRFTISRDNAKNSLYLQMNSLRDEDTAVYICAREFGKRYALDYWGQGTTVTVSSASTKGPSVFPLAPSSKSTSGGTAALGCLVKDYFPEPVTVSWNSGALTSGVHTFPAVLQSSGLYSLSSVVTVPSSSLGTQTYICNVNHKPSNTKVDKKVEPKSCEVQLVESGGGLVQPGGSLRLSCAASGFTFSSYDMSWVRQAPGKSLEWVATISDAGGYIYYSDSVKGRFTISRDNAKNSLYLQMNSLRDEDTAVYICAREFGKRYALDYWGQGTTVTVSSASTKGPSVFPLAPSSKSTSGGTAALGCLVKDYFPEPVTVSWNSGALTSGVHTFPAVLQSSGLYSLSSVVTVPSSSLGTQTYICNVNHKPSNTKVDKKV[human IgG1 Fc with changes not listed]
chain: DCDIEGKDGKQYESVLMVSIDQLLDSMKEIGSNCLNNEFNFFKRHICDANKEGMFLFRAARKLRQFLKMNSTGDFDLHLLKVSEGTTILLNCTGQVKGRKPAALGEAQPTKSLEENKSLKEQKKLNDLCFLKRLLQEIKTCANKILMGTKEH[human IgG1 Fc with changes not listed]
light: DIQMTQSPSSLSASVGDRVTITCKASQDVTPAVAWYQQKPGKAPKLLIYSTSSRYTGVPSRFSGSGSGTDFTFTISSLQPEDIATYYCQQHYTTPLTFGQGTKLEIKRTVAAPSVFIFPPSDEQLKSGTASVVCLLNNFYPREAKVQWKVDNALQSGNSQESVTEQDSKDSTYSLSSTLTLSKADYEKHKVYACEVTHQGLSSPVTKSFNRGEC
notes: Format 2 with IL-7 W142A; also called L1I7^W142A
For B2, in experiment [3], the half-maximal effective concentration (EC50) amounted to 66 pM.

B3: L1I7^142V (anti-PD-L1 v3) Format 2 (Fc fusion)
heavy: EVQLVESGGGLVQPGGSLRLSCAASGFTFSSYDMSWVRQAPGKSLEWVATISDAGGYIYYSDSVKGRFTISRDNAKNSLYLQMNSLRDEDTAVYICAREFGKRYALDYWGQGTTVTVSSASTKGPSVFPLAPSSKSTSGGTAALGCLVKDYFPEPVTVSWNSGALTSGVHTFPAVLQSSGLYSLSSVVTVPSSSLGTQTYICNVNHKPSNTKVDKKVEPKSCEVQLVESGGGLVQPGGSLRLSCAASGFTFSSYDMSWVRQAPGKSLEWVATISDAGGYIYYSDSVKGRFTISRDNAKNSLYLQMNSLRDEDTAVYICAREFGKRYALDYWGQGTTVTVSSASTKGPSVFPLAPSSKSTSGGTAALGCLVKDYFPEPVTVSWNSGALTSGVHTFPAVLQSSGLYSLSSVVTVPSSSLGTQTYICNVNHKPSNTKVDKKV[human IgG1 Fc with changes not listed]
chain: DCDIEGKDGKQYESVLMVSIDQLLDSMKEIGSNCLNNEFNFFKRHICDANKEGMFLFRAARKLRQFLKMNSTGDFDLHLLKVSEGTTILLNCTGQVKGRKPAALGEAQPTKSLEENKSLKEQKKLNDLCFLKRLLQEIKTCVNKILMGTKEH[human IgG1 Fc with changes not listed]
light: B2 light
notes: Format 2 with IL-7 W142V; also called L1I7^W142V
For the molecule B3, in experiment [3], the EC50 worked out at 120 pM.

B4: L1I7^142I(anti-PD-L1 v3) Format 2 (Fc fusion)
heavy: EVQLVESGGGLVQPGGSLRLSCAASGFTFSSYDMSWVRQAPGKSLEWVATISDAGGYIYYSDSVKGRFTISRDNAKNSLYLQMNSLRDEDTAVYICAREFGKRYALDYWGQGTTVTVSSASTKGPSVFPLAPSSKSTSGGTAALGCLVKDYFPEPVTVSWNSGALTSGVHTFPAVLQSSGLYSLSSVVTVPSSSLGTQTYICNVNHKPSNTKVDKKVEPKSCEVQLVESGGGLVQPGGSLRLSCAASGFTFSSYDMSWVRQAPGKSLEWVATISDAGGYIYYSDSVKGRFTISRDNAKNSLYLQMNSLRDEDTAVYICAREFGKRYALDYWGQGTTVTVSSASTKGPSVFPLAPSSKSTSGGTAALGCLVKDYFPEPVTVSWNSGALTSGVHTFPAVLQSSGLYSLSSVVTVPSSSLGTQTYICNVNHKPSNTKVDKKV[human IgG1 Fc with changes not listed]
chain: DCDIEGKDGKQYESVLMVSIDQLLDSMKEIGSNCLNNEFNFFKRHICDANKEGMFLFRAARKLRQFLKMNSTGDFDLHLLKVSEGTTILLNCTGQVKGRKPAALGEAQPTKSLEENKSLKEQKKLNDLCFLKRLLQEIKTCINKILMGTKEH[human IgG1 Fc with changes not listed]
light: B2 light
notes: Format 2 with IL-7 W142I; also called L1I7^W142I
Regarding B4, in experiment [3], the concentration for a half-maximal effect (EC50) stood at 120 pM.

B5: L1I7^142A (anti-PD-L1 v4) Format 2 (Fc fusion)
heavy: QVQLLESGGGLVQPGGSLRLSCAASGFTFSSYWMSWVRQAPGKGLEWVANIKQDGSEKYYVDSVKGRFTISRDNAKNSLYLQMNSLRAEDTAVYYCARVALWDDAFDIWGQGTMVTVSSASTKGPSVFPLAPSSKSTSGGTAALGCLVKDYFPEPVTVSWNSGALTSGVHTFPAVLQSSGLYSLSSVVTVPSSSLGTQTYICNVNHKPSNTKVDKKVEPKSCQVQLLESGGGLVQPGGSLRLSCAASGFTFSSYWMSWVRQAPGKGLEWVANIKQDGSEKYYVDSVKGRFTISRDNAKNSLYLQMNSLRAEDTAVYYCARVALWDDAFDIWGQGTMVTVSSASTKGPSVFPLAPSSKSTSGGTAALGCLVKDYFPEPVTVSWNSGALTSGVHTFPAVLQSSGLYSLSSVVTVPSSSLGTQTYICNVNHKPSNTKVDKKV[human IgG1 Fc with changes not listed]
chain: DCDIEGKDGKQYESVLMVSIDQLLDSMKEIGSNCLNNEFNFFKRHICDANKEGMFLFRAARKLRQFLKMNSTGDFDLHLLKVSEGTTILLNCTGQVKGRKPAALGEAQPTKSLEENKSLKEQKKLNDLCFLKRLLQEIKTCANKILMGTKEH[human IgG1 Fc with changes not listed]
light: B1 light
notes: Format 2 with IL-7 W142A
Regarding B5, the Kd in experiment [1] amounted to 741 pM. In addition, the koff in experiment [1] is 0.000709 s⁻¹. Moreover, the kon in experiment [1] worked out at 957000 M⁻¹ s⁻¹. Further, the EC50 came to 530 pM in experiment [4]; 290 pM in experiment [2]; 820 pM in experiment [5]; 170 pM in experiment [6]; 810 pM in experiment [3].
